Experimental data taken from PMC6919601, “Identification of Plasmodium dipeptidyl aminopeptidase allosteric inhibitors by high throughput screening” (PLoS ONE, 2019).
“And” between values parts separate entries of the source, which are not always exact repeats. Equal entries are not always repeated. Among all 110,000 compounds or so, about 230 (0.21%) showed an effect of 50% or more. The list shows a part of the results.

target: DPAP1 (Plasmodium falciparum, UniProt Q8IIJ9); assay: primary screen, percent inhibition; read by cleavage of a fluorogenic dipeptide substrate; higher = more effect of the substance; set-up: species or system P. falciparum D10 trophozoite lysates; single well
Sequence (Q8IIJ9 whole entry, looked up): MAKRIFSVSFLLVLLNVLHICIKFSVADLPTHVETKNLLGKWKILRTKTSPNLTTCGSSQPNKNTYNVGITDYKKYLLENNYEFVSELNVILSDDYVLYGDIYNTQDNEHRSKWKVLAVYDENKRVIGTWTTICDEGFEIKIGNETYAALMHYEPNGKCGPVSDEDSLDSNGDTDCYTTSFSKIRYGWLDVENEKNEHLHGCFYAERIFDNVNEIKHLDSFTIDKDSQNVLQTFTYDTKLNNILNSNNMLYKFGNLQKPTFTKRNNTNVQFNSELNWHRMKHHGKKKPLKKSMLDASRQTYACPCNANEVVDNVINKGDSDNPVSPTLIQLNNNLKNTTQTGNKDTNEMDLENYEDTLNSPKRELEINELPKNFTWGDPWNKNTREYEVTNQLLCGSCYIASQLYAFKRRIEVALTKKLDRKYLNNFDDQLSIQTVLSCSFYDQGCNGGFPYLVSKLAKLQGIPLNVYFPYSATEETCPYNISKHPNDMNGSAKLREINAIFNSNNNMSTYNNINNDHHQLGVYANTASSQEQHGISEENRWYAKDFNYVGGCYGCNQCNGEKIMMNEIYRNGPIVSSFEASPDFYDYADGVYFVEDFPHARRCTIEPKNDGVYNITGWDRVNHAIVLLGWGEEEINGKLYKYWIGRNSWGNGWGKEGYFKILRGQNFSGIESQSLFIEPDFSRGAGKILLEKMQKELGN
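Note: 30 min substrate incubation versus DMSO and 10 µM JCP410 controls.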

Row | Structure (SMILES) | % Inhibition @ 10 uM
1 | COc1cc(C2CC(c3ccc(Cl)cc3)Nc3nnnn32)cc(OC)c1OC (stereo not shown) | 0.0842%
2 | COc1ccc2cc(C(=O)O)sc(=O)c2c1OC | 0.221%
3 | CCn1nc(C)c(CCNC(=O)c2cc3c(=O)n(Cc4ccc(OC)cc4)ccc3nc2C)c1C | 0.0575%
4 | Cc1ccc(-c2cc(C(=O)N3CCOCC3)[nH]n2)cc1C | -1.63%
5 | CCN(CC)CCNc1ncnc2onc(-c3ccc(Cl)cc3)c12 | -13.7%
6 | COc1ccc(C(=O)Nc2nc3nc(C)c(Cl)c(O)n3n2)cc1OC | 2.05%
7 | CCNC(=O)C(Cc1c[nH]c2ccccc12)NC(=O)OC(C)(C)C (stereo not shown) | -0.992%
8 | C=C(C)Cn1c(S)nnc1-c1ccccc1 | 3.44%
9 | COc1ccc(CNC(=O)C2CCC(=O)N2C(C)C)cc1 (stereo not shown) | -1.21%
10 | COc1ccc(-c2csc(NC(=O)C3CC=CCC3C(=O)O)n2)cc1 (stereo not shown) | -7.14%
11 | Cc1ccc2oc(=O)c3cnn(CC(=O)Nc4nc5ccccc5s4)c3c2c1 | 1.62%
12 | CCOC(=O)c1nc2nc(C)cc(O)n2n1 | -9.24%
13 | CC1=C(c2ccc(C(C)C)cc2)S(=O)(=O)N=C1NCC(C)c1ccccc1 (stereo not shown) | 0.623%
14 | CCOc1ccc(/C=C2\N=C(c3ccc(OC)c(OC)c3)OC2=O)cc1 | -2.27%
15 | COc1cccc(C2C(C#N)=C(N)N(c3nc[nH]n3)C3=C2C(=O)CC(C)(C)C3)c1OC (stereo not shown) | 3.99%
16 | CC(C)(C)c1ccc(C(N)C(=O)O)s1 (stereo not shown) | -7.35%
17 | COc1cc(C(=O)N2CCN(C(=O)c3ccncc3)CC2)cc(OC)c1OC | -8.11%
18 | CC(CCc1ccccc1)N1CCN(Cc2ccccc2)CC1 (stereo not shown) | -1.81%
19 | CC(NC(=O)c1ccc2nc(N3CCOCC3)sc2c1)c1ccc2c(c1)OCCO2 (stereo not shown) | -2.37%
20 | COc1ccc(OC)c(C2C=C(c3ccc(C)c(C)c3)Nc3nnnn32)c1 (stereo not shown) | -8.88%
21 | Cc1cccn2c(=O)c3cc(C#N)c(=N)n(Cc4ccncc4)c3nc12 | 0.722%
22 | O=C(NC1CCCCCC1)c1ccc([N+](=O)[O-])cc1 | -3.04%
23 | COc1ccc(NS(=O)(=O)c2ccc(C(C)C)cc2)cc1 | 0.565%
24 | CC(C)n1c(Sc2nncn2C)nc2c1c(=O)n(C)c(=O)n2C | 1.52%
25 | c1ccc(-c2cn3nc(C4CCCCC4)sc3n2)cc1 | -2.71%

Row | Structure (SMILES) | % Inhibition @ 10 uM
26 | O=C(N/C(=C\c1cccc(Br)c1)C(=O)N1CCCCC1)c1ccco1 | 2.38%
27 | Cc1nn(CCC(=O)NC2CCCCCC2)c(=O)c2nn(-c3ccccc3)c(C)c12 | -10.6%
28 | Oc1ccccc1Cn1c2ccccc2c2ccccc21 | 0.135%
29 | NC(=O)C1CCN(c2ncnc3onc(-c4ccc(Cl)cc4)c23)CC1 | 1.15%
30 | CN1CCN(C2=NC(=O)/C(=C/c3ccc(Br)cc3)S2)CC1 | -0.48%
31 | CCO/C(O)=C/C1=NCCCCC1 | -3.33%
32 | COc1cc(C2C(C(=O)c3ccc(Cl)cc3)=C(O)C(=O)N2c2nc3ccccc3s2)ccc1O (stereo not shown) | -1.33%
33 | CC(C)(C)NC(=O)CCNS(=O)(=O)c1cc(Br)cnc1N | -6.98%
34 | O=C(Nc1ccccc1O)/C(=C\c1ccsc1)NC(=O)c1ccccc1 | -0.305%
35 | Cn1cnc2c(=O)oc3ccc(S(=O)(=O)N4CCN(C5CCCCC5)CC4)cc3c21 | 3%
36 | CC(C)(C)c1ccc(N2C(=O)CC(=O)NC2=O)cc1 | -3.78%
37 | O=C1CN(S(=O)(=O)c2cccc3cccnc23)CC(=O)N1CCc1ccccc1 | 0.0654%
38 | O=[N+]([O-])c1ccc(CNc2ccc(Br)cc2)cc1 | -2.21%
39 | COc1ccc(-c2c3c(=O)n(C)c(=O)n(C)c3cn2NC(C)=O)cc1 | 2.95%
40 | COc1cc2c(C(=O)N3CCOCC3)c(CN3CCOCC3)n(C)c2cc1Br | -3.34%
41 | CC1CC(C)CN(S(=O)(=O)c2ccc(Cl)cc2)C1 (stereo not shown) | -4.4%
42 | COc1ccc(C2NCCc3c2[nH]c2ccccc32)cc1OC (stereo not shown) | 0.815%
43 | CC1=CC(C)C2(COC(=O)Nc3ccccc3)COC(C)C1C2C (stereo not shown) | -0.582%
44 | Cc1ccccc1C(=O)Nc1ccc(-c2nc3cc(Cl)ccc3o2)cc1 | -2.51%
45 | CC(=O)c1cccc(NC(=O)COc2ccccc2)c1 | -1.29%
46 | CCn1c(C(=O)N2CCC(C(=O)NCCOC)CC2)cc2sccc21 | 4.95%
47 | CCCNC(=O)CSC1=N/C(=C\c2ccc(Cl)cc2Cl)C(=O)N1C | 2.38%
48 | Cc1ccc(OCC(=O)Nc2ccc(S(=O)(=O)Nc3nccs3)cc2)c(Br)c1 | -4.67%
49 | O=C1N2CN(C3CCCCC3)CN3C(=O)N4CN(C5CCCCC5)CN1C4C23 (stereo not shown) | 0.565%
50 | O=C(CC1Nc2ccccc2NC1=O)Nc1ccccc1 (stereo not shown) | 32.7%

Row | Structure (SMILES) | % Inhibition @ 10 uM
51 | COC(=O)C1=C(C)NC(=O)/C1=C\c1ccc(Cl)cc1Cl | -1.76%
52 | O=C(CS(=O)(=O)c1ccc2ccccc2c1)Nc1ccccc1Cl | 0.726%
53 | CC(C)C[C@H](NC(=O)c1cccc(-c2ccc3c(c2)OCO3)c1)C(=O)NCC#N | -6.98%
54 | Cc1cc(C)n(CCCCCC(=O)O)c(=O)n1 | -1.29%
55 | O=C(NCCc1ccncc1)NC1CCCCC1 | 2.17%
56 | Nc1cnc2ccc3nn(-c4ccccc4)nc3c2n1 | -8.3%
57 | CCOc1ccccc1N(CC(=O)N1CCN(C)CC1)S(=O)(=O)c1ccccc1 | 0.851% and -2.29%
58 | CCc1ccc(-c2cn3c(n2)sc2cc(C(=O)NCCN4CCCC4)ccc23)cc1 | 5.11%
59 | CC1=C(C(=O)Nc2ccc(Cl)cc2)C(c2ccc(N(C)C)cc2)NC(S)=N1 (stereo not shown) | -0.436%
60 | Fc1ccccc1CSc1nncn2c1cc1sccc12 | -5.3%
61 | COc1cc2c(cc1OC)C(C(=O)N1CCCC1)C(c1ccccc1F)N(C)C2=O (stereo not shown) | -4.65%
62 | CCOC(=O)c1cc2c(=O)n3ccccc3nc2n(C(C)C)/c1=N\C(=O)C(C)(C)C | 3.61%
63 | CCC(=O)N1N=C(c2cccs2)CC1c1ccc(OC)cc1 (stereo not shown) | 2.26%
64 | COc1ccc(CNc2ccc(SC)cc2)cc1 | 1.38%
65 | Cc1ccc(N2CC(C(=O)NC3CC3)CC2=O)cc1 (stereo not shown) | -7.91%
66 | CCOc1ccc(C(=O)Nc2ccc(NC(C)=O)cc2)cc1 | 5.07%
67 | c1cncc(CNCc2ccco2)c1 | -1.08%
68 | Cc1ccc(-c2nc(-c3cccnc3)no2)c(C)c1 | -3.53%
69 | Cn1c(SCc2nc(-c3ccccc3)no2)nnc1-c1cccs1 | -2.91%
70 | CC1(C)CC(=O)C2=C(C1)OC1=C(C(=O)CC(C)(C)C1)C2c1c(O)ccc2ccccc12 | 1.13%
71 | O=C(Nc1ccc(F)cc1)c1ccccc1NC(=O)C1CC=CCC1C(=O)O (stereo not shown) | -2.76%
72 | CC1CCCCN1C(=O)CSc1nc2ccsc2c(=O)n1Cc1ccccn1 (stereo not shown) | 10.4%
73 | O=C(Nc1ccccc1)c1ccc(N2C(=O)C3C4C=CC(C4)C3C2=O)cc1 (stereo not shown) | -3.85%
74 | CC(C)C[C@H](NC(=O)c1ccc(Cc2ccccc2)cc1)C(=O)NCC#N | 1.71%
75 | CCC(C)NC(=O)C1CCCN(c2nnc(N3CCCC3=O)s2)C1 (stereo not shown) | -4.68%

Row | Structure (SMILES) | % Inhibition @ 10 uM
76 | COc1ccc2c(Sc3ccccc3)c(C(=O)N3CCN(c4ccccn4)CC3)[nH]c2c1 | -7.17%
77 | CCCCNC(=O)C1CCC(C/N=c2/c(N3CCC(C)CC3)c(O)c2=O)CC1 (stereo not shown) | -3.96%
78 | CN(C)CCOC(=O)c1ccc2[nH]c3c(c2c1)CSCC3 | 9.31%
79 | CC(C)n1c(NC2CCCCC2)nc2c1c(=O)[nH]c(=O)n2C | -1.11%
80 | N=C1S/C(=C\c2ccc(-c3cccc(C(F)(F)F)c3)o2)C(=O)N1c1nonc1N | 0.727%
81 | COc1ccc2[nH]c3c(=O)n(CCCCC(=O)NCCCN4CCCC4=O)c(=S)[nH]c3c2c1 | 8.62%
82 | COc1ccccc1C(=O)Nc1cc2c(cc1C(C)=O)OCO2 | 3.67%
83 | Sc1nnc(-c2ccccc2Cl)n1C1CCCCC1 | -1.32%
84 | O=C(O)c1ccc(C(=O)c2ccc([N+](=O)[O-])cc2)cc1 | -3.65%
85 | O=C1NC2(CCCC2)Cc2ccccc21 | 1.54%
86 | CCO/C(O)=C1/C(C)=Nc2ncnn2C1c1cc(Br)ccc1F (stereo not shown) | -3.37%
87 | CC(C)(C)c1ccc(C(=O)N/C(=C\c2ccco2)C(=O)NCCC(=O)O)cc1 | -3.75%
88 | CC(=O)N1CCC2(CC1)OC(=O)C(C)=C2C(=O)NC(C)c1ccccc1 (stereo not shown) | -7.03%
89 | CCC1CCCCN1CCCNC(=O)C1CCCN(S(=O)(=O)N2CCOCC2)C1 (stereo not shown) | 0.0525%
90 | COc1ccc(C)cc1NC(=O)c1ccc(Cn2nc(C)cc2C)o1 | -0.891%
91 | CCc1nnc(NC(=O)CSc2n[nH]c(CC(C)C)n2)s1 | -3.21%
92 | Nc1c(C(=O)Nc2ccccc2)sc2sc(C(=O)Nc3ccccc3)c(N)c12 | 6.31%
93 | CCCCCCNS(=O)(=O)c1ccccc1[N+](=O)[O-] | 4.17%
94 | CS(=O)(=O)N1CCC(C(=O)NCc2cccs2)CC1 | -1.34%
95 | O=C(Nc1ccc(F)cc1F)c1ccc(Cl)cc1Cl | 3.53%
96 | O=[N+]([O-])c1ccc(-c2nc(-c3ccccc3)no2)cc1 | -10.2%
97 | Cc1cc(=O)oc2c(CN3CCOCC3)c(O)c(Cl)cc12 | 2.26%
98 | CCOc1cc(C2C(C#N)=C(N)Oc3c2oc(CO)cc3=O)ccc1OCCN1CCOCC1 (stereo not shown) | 4.09%
99 | Cc1cc2c3nonc3ccc2n1-c1ccccc1 | -6.36%
100 | Cn1c(=O)c2c(nc(CN3CCOCC3)n2Cc2ccccc2)n(C)c1=O | -2.29%
